Measured values from PubChem BioAssay AID445 (National Center for Advancing Translational Sciences (NCATS), 2006).
Among all 110,000 compounds or so, about 40 (0.04%) were called active. Inconclusive means that the source gave no clear call. Such entries were picked first, then a sample of the others. Calls come from the whole dose curve; as a rule, active = well fitted curve in the direction sought with a large enough effect in the signal ratio (not every such curve was filed as active); inconclusive = small, poorly fitted or top-dose-only effect, or a change in a side signal; inactive = flat fitted curve, though single readings scatter; the % refers to the signal ratio. A potency beside an inconclusive call is a rough fit, not a confirmed value.

assay: IkB Signaling; conditions: ABC-DLBCL IkBa-CBG/CBR dual luciferase ratio (green luciferase fused to IkBa over red control in OCI-Ly3 lymphoma cells), 4 h; IkBa stabilization activation: at 57.1 µM (top of the series), scaled: untreated 0%, proteasome inhibitor 100% unless noted;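 for IkBa stabilization activation: 0% = basal untreated cells and 100% = reference inhibitor full response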
Method in brief: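 Curves were fitted separately to fusion (green), unfused (red) and ratio luminescence, then classed by r2, magnitude and activity. Cells: OCI-Ly3, 4 h compound plus doxycycline at 37C; 10 uM MG-132 defined full response.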
Potency is the fitted concentration of half-maximal effect.

Row | Structure (SMILES) | IkBa stabilization activation | Potency
1 | COCCCNC(=O)C1CCN(c2cc(C)nc3c(-c4ccc(OC)c(OC)c4)c(C)nn23)CC1 | inactive | –
2 | COc1ccc(Cl)cc1NC(=O)c1nn(C)c2c1CS(=O)(=O)c1ccccc1-2 | inconclusive: 2.24% [signal inhibitor] | –
3 | COc1ccc(-n2cc(C(=O)NCc3cccc(OC)c3)c3ccccc3c2=O)cc1 | inconclusive: 8.32% [signal inhibitor] | –
4 | CC(C)Oc1ccc(CNC(=O)CCCn2c(=O)c3cccn3c3cccnc32)cc1 | inconclusive: 2.61% [signal inhibitor] | –
5 | O=C(NCc1ccc2c(c1)CCN2C(=O)c1ccncc1)c1ccc(Cl)cc1 | inconclusive: -0.226% [signal inhibitor] | –
6 | Clc1ccc(OCc2nn3c(-c4ccco4)nnc3s2)cc1 | inconclusive: -2.22% [signal inhibitor] | –
7 | Cc1c(Cl)cccc1NC(=O)CN1C(=O)CCn2nc(-c3cccn3C)cc21 | inconclusive: 0.897% [signal inhibitor] | –
8 | CCn1c(NCc2cccc(Cl)c2)nc2ccccc21 | inconclusive: -0.87% [signal inhibitor] | –
9 | COc1cc(-c2nc3ccc(C)cn3c2Nc2ccc(Cl)cc2)ccc1O | – | inconclusive: 3.98 µM [signal inhibitor, single point]
10 | O=C(CSc1nc(-c2ccccc2)cn1-c1ccccc1)Nc1ccccc1 | inconclusive: -0.199% [signal inhibitor] | –
11 | O=C(NCCCN1CCCCC1)c1cc(Sc2ccc(Cl)cc2)nc2ccccc12 | inconclusive: -0.68% [signal inhibitor] | –
12 | Cc1ccc(-n2c3c(cc(C(=O)NCc4ccco4)c2=O)C(=O)CC(C)(C)C3)cc1 | – | inconclusive: 31.6 µM [signal inhibitor, partial curve]
13 | Cc1ccc(-c2nn(-c3ccccc3)cc2C2SCC(=O)N2Cc2ccccc2)o1 (stereo not given) | inconclusive: 7.6% [signal inhibitor] | –
14 | O=C(Cn1c(=O)n(Cc2ccc3c(c2)OCO3)c(=O)c2ccc(C(=O)NC3CCCCC3)cc21)Nc1ccccc1F | inconclusive: 12.3% [signal inhibitor] | –
15 | COc1ccc(-c2cc(C(=O)Oc3ccc(C)c(C)c3)c3ccccc3n2)cc1 | inactive | –
16 | OCCN(CCO)CC(O)Cn1c2ccccc2c2ccccc21 (stereo not given) | inactive | –
17 | Cc1cccc(CNc2cc(-c3ccc(N(C)C)cc3)ncn2)c1 | inactive: 4.14% [at 11.4 µM, scaled: untreated 0%, proteasome inhibitor 100%] | –
18 | COc1cccc(NC2SC(=O)N(c3ccccc3)C2=O)c1 (stereo not given) | – | inconclusive: 3.98 µM [signal inhibitor, partial curve]
19 | Cc1cccc(-n2c3nc(=O)n(C)c(=O)c-3cc3ccc(Cl)cc32)c1C | inconclusive: 10% [signal inhibitor] | –
20 | Cc1noc2ncnc(NCc3cccc(Cl)c3)c12 | inconclusive: 2.16% [signal inhibitor] | –
21 | CS(=O)(=O)N1CCc2cc(C(=O)NCc3ccccc3)ccc21 | inactive | –
22 | Oc1cccc(Nc2ncnc3sc4c(c23)CCCC4)c1 | inconclusive: 1.51% [signal inhibitor] | –
23 | CCOc1ccc(-n2c(SCC(=O)N3CCCCC3)nc3c([nH]c4ccccc43)c2=O)cc1 | inconclusive: 2.8% [signal inhibitor] | –
24 | O=c1[nH]c(SCc2ccc(F)cc2)nc2c1cnn2-c1ccc(F)cc1 | inactive | –

Row | Structure (SMILES) | IkBa stabilization activation | Potency
25 | O=C(CSc1nc(=O)n(Cc2ccco2)c2c1CCC2)NCc1ccc(F)cc1 | inconclusive: 1.06% [signal inhibitor] | –
26 | CC1=C(C(=O)Nc2ccccc2C)C(c2ccccn2)n2nc(SCc3ccccc3F)nc2N1 (stereo not given) | inactive | –
27 | CCCc1nc2oc3c(NCCOCCO)ncnc3c2c2c1COC(C)(C)C2 | inactive | –
28 | CCOC(=O)CC(=O)CSc1nc(-c2cccnc2)cc(C)c1C#N | inactive | –
29 | CCc1ccc(NC(=O)CSc2nc(=O)n(Cc3ccco3)c3c2CCC3)cc1 | inconclusive: 0.474% [signal inhibitor] | –
30 | COc1cccc(-c2nc(NCc3ccc(OC)cc3OC)c3ccccc3n2)c1 | inactive: 0.671% [at 11.4 µM, scaled: untreated 0%, proteasome inhibitor 100%] | –
31 | O=c1[nH]c(SCc2ccc(Br)cc2)nc2c1CCCC2 | inactive | –
32 | COc1ccc(S(=O)(=O)N2CCCN(CCC(=O)Nc3cccc(C(F)(F)F)c3)CC2)cc1 | inconclusive: 0.45% [signal inhibitor] | –
33 | Cc1cccc(OCC(=O)Nc2cc(C)ccc2O)c1 | inactive | –
34 | COc1cccc(-c2nc(-c3ccc(NC(=O)Cc4ccccc4OC)cc3)no2)c1 | inconclusive: 2.29% [signal inhibitor] | –
35 | Cc1ccc2nc(-c3ccc(NC(=O)c4ccco4)cc3)[nH]c2c1 | inactive | –
36 | CC(C)CC(=O)Nc1ccc(-c2cn3ccsc3n2)cc1 | inconclusive: 1.04% [signal inhibitor] | –
37 | CCc1ccc(S(=O)(=O)c2nnn3c2nc(N2CCCC(C)C2)c2cc(Cl)ccc23)cc1 (stereo not given) | inconclusive: 0.314% [signal inhibitor] | –
38 | COc1ccc(Br)cc1CNC(=O)c1ccc2c(c1)nc1n2CCCCC1 | inconclusive: 1.08% [signal inhibitor] | –
39 | Cc1noc(C)c1-c1ccc2ncnc(NCc3ccccc3)c2c1 | inconclusive: 15.5% [signal activator] [at 11.4 µM, scaled: untreated 0%, proteasome inhibitor 100%] | –
40 | Cc1cccc(CN2C(=O)c3ccccc3S(=O)(=O)c3ccc(C(=O)N4CCN(c5cc(C)ccc5C)CC4)cc32)c1 | inconclusive: 1.07% [signal inhibitor] | –
41 | CCc1ccc(-c2cc3c(N4CCN(c5ccccc5)CC4)nccn3n2)cc1 | inconclusive: 5.48% [signal inhibitor] | –
42 | COc1cccc(C(=O)n2nc(-c3ccco3)nc2NCc2cccs2)c1 | inconclusive: 2.85% [signal inhibitor] | –
43 | COc1ccc(N2CCN(C(=O)CCn3cnc4onc(-c5ccc(F)cc5)c4c3=O)CC2)cc1 | inactive | –
44 | COC(=O)c1ccccc1NC(=O)COc1ccccc1 | – | inconclusive: 20 µM [signal inhibitor, partial curve]
45 | COc1ccc(NS(=O)(=O)c2ccc(NS(=O)(=O)c3ccc4c(c3)OCCO4)cc2)cc1 | inconclusive: 8.19% [signal inhibitor] | –
46 | COc1cccc(N2CCN(Cc3nnc(-c4ccc5c(c4)OCO5)o3)CC2)c1 | inconclusive: 6.19% [signal inhibitor] | –
47 | COc1ccc(NC(=O)N2CCN(c3cc(-c4noc(C)n4)ccc3C)CC2)c(OC)c1 | inactive | –
48 | CN(C)C(=O)c1ccc(-c2cc(Nc3ccccc3)ncn2)cc1 | inactive: -1.57% [at 11.4 µM, scaled: untreated 0%, proteasome inhibitor 100%] | –

Row | Structure (SMILES) | IkBa stabilization activation | Potency
49 | Cc1cc(C)cc(N2CCn3c2nc2c3c(=O)n(CCc3ccccc3)c(=O)n2C)c1 | inconclusive: 0.0158% [signal inhibitor] | –
50 | COC(=O)C1=C(c2ccccc2)c2ccccc2S(=O)(=O)N1CC(=O)Nc1ccccc1C(F)(F)F | inactive | –
51 | Cc1cccc(N2CCN(c3ccc(C(=O)O)cc3NC(=O)c3ccccc3F)CC2C)c1 (stereo not given) | inconclusive: 9.11% [signal inhibitor] | –
52 | Cn1c(=O)n(CCc2ccccc2)c(=O)c2c1nc1n2CCN1c1ccc(Cl)cc1 | inconclusive: 4.74% [signal inhibitor] | –
53 | Cc1ccc2nc(NC(=O)c3cccs3)sc2c1 | – | inconclusive: 31.6 µM [signal inhibitor, partial curve]
54 | Cc1cccc(C)c1-n1nnnc1SCSc1nnnn1-c1c(C)cccc1C | inactive | –
55 | CC(C(=O)Nc1ccccc1C(F)(F)F)n1nc(-c2ccccc2)c2c(c1=O)CCCC2 (stereo not given) | inconclusive: 1.34% [signal inhibitor] | –
56 | COc1ccc(CC(=O)Nc2cccc(-c3nnc(-c4ccccc4)o3)c2)cc1OC | inconclusive: -2.91% [signal inhibitor] | –
57 | Cc1cc(C)c2c(-n3cccc3)c(C(=O)NCCc3ccccc3)sc2n1 | inactive | –
58 | CC(C)CC(=O)Nc1c(C(=O)N2CCN(c3ccccc3F)CC2)oc2ccccc12 | inconclusive: -3.82% [signal inhibitor] | –
59 | Cc1nc2ccccc2n1CCc1nc2c3ccccc3nc(SCC(=O)Nc3ccc(C(C)C)cc3)n2n1 | inactive | –
60 | Cc1ccc(C)c(NC(=O)C2CCC(C)(C(=O)O)C2(C)C)c1 (stereo not given) | inactive | –
61 | Cc1ccc(NC(=O)CSc2[nH]c(=O)ncc2C)cc1 | inactive | –
62 | Clc1ccc(CSc2nc3ncccc3[nH]2)cc1 | inactive | –
63 | CCC(=O)N1CCc2cc(OC)c(OC)cc2C1COc1ccc(C(=O)OC)cc1 (stereo not given) | inconclusive: 3.04% [signal inhibitor] | –
64 | Cc1nn(Cc2ccccc2)c(C)c1C(=O)OCC(=O)c1cc(C)n(C2CC2)c1C | inconclusive: 3.27% [signal inhibitor] | –
65 | CCCc1ccc(NC(=O)C2CCN(c3cnccn3)CC2)cc1 | inconclusive: 1.21% [signal inhibitor] | –
66 | Cc1ccc(NC(=O)Cc2ccc(NC(=O)N3CCCCc4ccccc43)cc2)cc1 | inconclusive: 1.26% [signal inhibitor] | –
67 | CCCCn1c(SCC(=O)OC)nc2c1c(=O)n(C)c(=O)n2C | inactive | –
68 | CN(Cc1ccco1)c1nc(-c2ccoc2)nc2ccccc12 | inactive: 4.34% [at 11.4 µM, scaled: untreated 0%, proteasome inhibitor 100%] | –
69 | COc1cc(-c2nn3c(-c4ccccc4)nnc3s2)cc(OC)c1OC | inactive | –
70 | CSc1cccc(NC(=O)Cn2nnc(C(=O)NCCc3ccccc3)c2N)c1 | inconclusive: 2.89% [signal inhibitor] | –
